# Source: patent publication US20260137703A1, “2-AMINO-PYRIDO[2,3-D]PYRIMIDIN-7(8H)-ONE AND 7-AMINO-1-PYRIMIDO[4,5-D]PYRIMIDIN-2(1 H)-ONE DERIVATIVES AS EGFR INHIBITORS FOR THE TREATMENT OF CANCER” (Cancer Research Technology Limited, priority 2022, published 2026)
# Molecular target: CtermHisTag-mEGFR Triple Mutant (R797S, L858R, T790M) (Homo sapiens, UniProt P00533, C797S/L858R/T790M)
# Test: TR-FRET probe displacement, EGFR triple mutant
# Conditions: 1.25 nM EGFR, 100 nM probe, 30 mins room temperature
row,IC50 [nM],SMILES
1,20 to 100,"C#Cc1cc(=O)n([C@@H]2CCCN(C(=O)CC)C2)c2nc(Nc3ccc(N(C)CCN(C)C)cc3)ncc12 [Example 77, (R)-2-((4-((2-(Dimethylamino)ethyl)(methyl)amino)phenyl)amino)-5-ethynyl-8-(1-propionylpiperidin-3-yl)pyrido[2,3-d]pyrimidin-7(8H)-one trifluoroacetic acid salt]"
2,< 20,"C#Cc1cc(=O)n(C2CCCC2)c2nc(Nc3ccc(N4CCN(C)CC4)cc3)ncc12 [Example 78, 8-cyclopentyl-5-ethynyl-2-((4-(4-methylpiperazin-1-yl)phenyl)amino)pyrido[2,3-d]pyrimidin-7(8H)-one]"
3,< 20,"C#Cc1cc(=O)n([C@H]2CC[C@@H](NC(C)=O)CC2)c2nc(Nc3ccc(N(C)CCN(C)C)cc3)ncc12 [Example 79, N-[(1s,4s)-4-{2-[(4-{[2-(Dimethylamino)ethyl](methyl)amino}phenyl)amino]-5-ethynyl-7-oxopyrido[2,3-d]pyrimidin-8-yl}cyclohexyl]acetamide]"
4,< 20,"C#Cc1cc(=O)n([C@H]2CC[C@@H](CO)CC2)c2nc(Nc3ccc(N(C)CCN(C)C)cc3)ncc12 [Example 80, 2-[(4-{[2-(Dimethylamino)ethyl](methyl)amino}phenyl)amino]-5-ethynyl-8-[(1s,4s)-4-(hydroxymethyl)cyclohexyl]pyrido[2,3-d]pyrimidin-7-one]"
5,< 20,"C#Cc1cc(=O)n([C@H]2CC[C@@H](NC(=O)CC)CC2)c2nc(Nc3ccc(N4CCN(C)CC4)cc3)ncc12 [Example 81, N-[(1s,4s)-4-(5-Ethynyl-2-{[4-(4-methylpiperazin-1-yl)phenyl]amino}-7-oxopyrido[2,3-d]pyrimidin-8-yl)cyclohexyl]propanamide]"
6,< 20,"C#Cc1cc(=O)n([C@H]2CC[C@@H](NC(=O)C(C)C)CC2)c2nc(Nc3ccc(N4CCN(C)CC4)cc3)ncc12 [Example 82, 2-Methyl-N-[(1s,4s)-4-(5-ethynyl-2-{[4-(4-methylpiperazin-1-yl)phenyl]amino}-7-oxopyrido[2,3-d]pyrimidin-8-yl)cyclohexyl]propanamide]"
7,100 to 1000,"C#Cc1cc(=O)n(C(C)C)c2nc(Nc3ccccc3OC)ncc12 [Example 83, 5-Ethynyl-8-isopropyl-2-[(2-methoxyphenyl)amino]pyrido[2,3-d]pyrimidin-7-one]"
8,20 to 100,"C#Cc1cc(=O)n(-c2ccc(OC)cc2)c2nc(Nc3ccccc3OC)ncc12 [Example 84, 5-ethynyl-8-(4-methoxyphenyl)-2-[(2-methoxyphenyl)amino]pyrido[2,3-d]pyrimidin-7-one]"
9,20 to 100,"C#Cc1cc(=O)n(-c2cccc(NC(=O)C=C)c2)c2nc(Nc3ccccc3OC)ncc12 [Example 85, N-(3-(5-Ethynyl-2-((2-methoxyphenyl)amino)-7-oxopyrido[2,3-d]pyrimidin-8(7H)-yl)phenyl)acrylamide]"
10,< 20,"C#Cc1cc(=O)n(-c2ccc(OC)cc2OC)c2nc(Nc3ccc(N(C)CCN(C)C)cc3)ncc12 [Example 86, 8-(2,4-Dimethoxyphenyl)-2-[(4-{[2-(dimethylamino)ethyl](methyl)amino}phenyl)amino]-5-ethynylpyrido[2,3-d]pyrimidin-7-one]"
11,< 20,"C#Cc1cc(=O)n([C@H]2CC[C@H](NC(C)=O)CC2)c2nc(Nc3ccc(N4CCN(C)CC4)cc3)ncc12 [Example 87, N-[(1r,4r)-4-(5-Ethynyl-2-{[4-(4-methylpiperazin-1-yl)phenyl]amino}-7-oxopyrido[2,3-d]pyrimidin-8-yl)cyclohexyl]acetamide]"
12,100 to 1000,"C#Cc1cc(=O)n(-c2ccc(NC(=O)C=C)cc2)c2nc(Nc3ccccc3OC)ncc12 [Example 88, N-(4-(5-Ethynyl-2-((2-methoxyphenyl)amino)-7-oxopyrido[2,3-d]pyrimidin-8(7H)-yl)phenyl)acrylamide]"
13,< 20,"C#Cc1cc(=O)n([C@H]2CC[C@H](NC(=O)c3ccnnc3)CC2)c2nc(Nc3ccc(N4CCN(C)CC4)cc3)ncc12 [Example 89, N-[(1r,4r)-4-(5-Ethynyl-2-{[4-(4-methylpiperazin-1-yl)phenyl]amino}-7-oxopyrido[2,3-d]pyrimidin-8-yl)cyclohexyl]pyridazine-4-carboxamide]"
14,20 to 100,"C#Cc1cc(=O)n([C@H]2CC[C@@H](NC(=O)CN(C)C)CC2)c2nc(Nc3ccccc3OC)ncc12 [Example 90, 2-(Dimethylamino)-N-[(1s,4s)-4-{5-ethynyl-2-[(2-methoxyphenyl)amino]-7-oxopyrido[2,3-d]pyrimidin-8-yl}cyclohexyl]acetamide]"
15,< 20,"C#Cc1cc(=O)n([C@H]2CC[C@@H](NC(=O)Cc3cn[nH]c3)CC2)c2nc(Nc3ccc(N4CCN(C)CC4)cc3)ncc12 [Example 91, 2-(1H-Pyrazol-4-yl)-N-[(1s,4s)-4-(5-ethynyl-2-{[4-(4-methylpiperazin-1-yl)phenyl]amino}-7-oxopyrido[2,3-d]pyrimidin-8-yl)cyclohexyl]acetamide]"
16,< 20,"C#Cc1cc(=O)n([C@H]2CC[C@@H](NC(=O)CCC(=O)OC)CC2)c2nc(Nc3ccc(N4CCN(C)CC4)cc3)ncc12 [Example 92, Methyl 4-(((1s,4s)-4-(5-ethynyl-2-((4-(4-methylpiperazin-1-yl)phenyl)amino)-7-oxopyrido[2,3-d]pyrimidin-8(7H)-yl)cyclohexyl)amino)-4-oxobutanoate]"
17,< 20,"C#Cc1cc(=O)n([C@H]2CC[C@@H](NC(=O)CCC(=O)N(C)C)CC2)c2nc(Nc3ccc(N4CCN(C)CC4)cc3)ncc12 [Example 93, N,N-Dimethyl-N′-[(1s,4s)-4-(5-ethynyl-2-{[4-(4-methylpiperazin-1-yl)phenyl]amino}-7-oxopyrido[2,3-d]pyrimidin-8-yl)cyclohexyl]succinamide]"
18,< 20,"C#Cc1cc(=O)n([C@H]2CC[C@@H](NC(=O)CC(=O)NC)CC2)c2nc(Nc3ccc(N4CCN(C)CC4)cc3)ncc12 [Example 94, N-Methyl-N′-[(1s,4s)-4-(5-ethynyl-2-{[4-(4-methylpiperazin-1-yl)phenyl]amino}-7-oxopyrido[2,3-d]pyrimidin-8-yl)cyclohexyl]propanediamide]"
19,< 20,"C#Cc1cc(=O)n([C@H]2CC[C@@H](NC(=O)CC(=O)N(C)C)CC2)c2nc(Nc3ccc(N4CCN(C)CC4)cc3)ncc12 [Example 95, N,N-Dimethyl-N′-[(1s,4s)-4-(5-ethynyl-2-{[4-(4-methylpiperazin-1-yl)phenyl]amino}-7-oxopyrido[2,3-d]pyrimidin-8-yl)cyclohexyl]propanediamide]"
20,< 20,"C#Cc1cc(=O)n([C@H]2CC[C@@H](NC(=O)CCN(C)C)CC2)c2nc(Nc3ccc(N4CCN(C)CC4)cc3)ncc12 [Example 96, 3-(Dimethylamino)-N-[(1s,4s)-4-(5-ethynyl-2-{[4-(4-methylpiperazin-1-yl)phenyl]amino}-7-oxopyrido[2,3-d]pyrimidin-8-yl)cyclohexyl]propanamide]"
21,< 20,"C#Cc1cc(=O)n([C@H]2CC[C@@H](NC(=O)CCCN(C)C)CC2)c2nc(Nc3ccc(N4CCN(C)CC4)cc3)ncc12 [Example 97, 4-(Dimethylamino)-N-[(1s,4s)-4-(5-ethynyl-2-{[4-(4-methylpiperazin-1-yl)phenyl]amino}-7-oxopyrido[2,3-d]pyrimidin-8-yl)cyclohexyl]butanamide]"
22,< 20,"C#Cc1cc(=O)n([C@H]2CC[C@@H](NC(=O)CCC(=O)NC)CC2)c2nc(Nc3ccc(N4CCN(C)CC4)cc3)ncc12 [Example 98, N-Methyl-N′-[(1s,4s)-4-(5-ethynyl-2-{[4-(4-methylpiperazin-1-yl)phenyl]amino}-7-oxopyrido[2,3-d]pyrimidin-8-yl)cyclohexyl]succinamide]"
23,< 20,"C#Cc1cc(=O)n([C@H]2CC[C@@H](NC(=O)CC(=O)O)CC2)c2nc(Nc3ccc(N4CCN(C)CC4)cc3)ncc12 [Example 99, 2-{[(1s,4s)-4-(5-Ethynyl-2-{[4-(4-methylpiperazin-1-yl)phenyl]amino}-7-oxopyrido[2,3-d]pyrimidin-8-yl)cyclohexyl]carbamoyl}acetic acid]"
24,20 to 100,"C#Cc1cc(=O)n([C@H]2CC[C@@H](NC(=O)CN(C)C)CC2)c2nc(Nc3ccc(N4CCN(C)CC4)cc3)ncc12 [Example 100, 2-(Dimethylamino)-N-[(1s,4s)-4-(5-ethynyl-2-{[4-(4-methylpiperazin-1-yl)phenyl]amino}-7-oxopyrido[2,3-d]pyrimidin-8-yl)cyclohexyl]acetamide]"
25,1000 to 50000,"C#Cc1cc(=O)n([C@H]2CC[C@@H](N(C)C(=O)CN(C)C)CC2)c2nc(Nc3ccccc3OC)ncc12 [Example 101, 2-(Dimethylamino)-N-methyl-N-[(1s,4s)-4-{5-ethynyl-2-[(2-methoxyphenyl)amino]-7-oxopyrido[2,3-d]pyrimidin-8-yl}cyclohexyl]acetamide]"
26,100 to 1000,"C#Cc1c(C)c(=O)n([C@H]2CC[C@H](NC(C)=O)CC2)c2nc(Nc3ccc(N4CCN(C)CC4)cc3)ncc12 [Example 102, N-[(1r,4r)-4-(5-Ethynyl-6-methyl-2-{[4-(4-methylpiperazin-1-yl)phenyl]amino}-7-oxopyrido[2,3-d]pyrimidin-8-yl)cyclohexyl]acetamide]"
27,20 to 100,"C#Cc1c(C)c(=O)n([C@H]2CC[C@@H](NC(C)=O)CC2)c2nc(Nc3ccc(N4CCN(C)CC4)cc3)ncc12 [Example 103, N-[(1s,4s)-4-(5-ethynyl-6-methyl-2-{[4-(4-methylpiperazin-1-yl)phenyl]amino}-7-oxopyrido[2,3-d]pyrimidin-8-yl)cyclohexyl]acetamide]"
28,100 to 1000,"C#Cc1cc(=O)n(C2CCNC2=O)c2nc(Nc3ccc(N4CCN(C)CC4)cc3)ncc12 (stereo not drawn) [Example 104, 3-(5-ethynyl-2-{[4-(4-methylpiperazin-1-yl)phenyl]amino}-7-oxopyrido[2,3-d]pyrimidin-8-yl)pyrrolidin-2-one]"
29,100 to 1000,"C#Cc1cc(=O)n(C2CCOC2)c2nc(Nc3ccc(N4CCN(C)CC4)cc3)ncc12 (stereo not drawn) [Example 105, 5-ethynyl-2-{[4-(4-methylpiperazin-1-yl)phenyl]amino}-8-(oxolan-3-yl)pyrido[2,3-d]pyrimidin-7-one]"
30,100 to 1000,"C#Cc1cc(=O)n(C2CCNC2)c2nc(Nc3ccc(N4CCN(C)CC4)cc3)ncc12 (stereo not drawn) [Example 106, 5-ethynyl-2-{[4-(4-methylpiperazin-1-yl)phenyl]amino}-8-(pyrrolidin-3-yl)pyrido[2,3-]pyrimidin-7-one]"

# Where a name gives a salt, the structure may show the parent alone.
